Test results as given in publication PMC4336329 (PLoS ONE, 2015).
About 2,200 (0.71%) of roughly 310,000 compounds showed an effect of 50% or more. The effect is printed as a negative number. The list shows a part of the results.

Each compound was assayed against human ether-à-go-go-related gene (hERG) potassium channel (human, UniProt Q12809) (assay: primary screen, population patch clamp on CHO cells stably expressing hERG).
human ether-à-go-go-related gene (hERG) potassium channel, sequence (Q12809 whole entry, looked up): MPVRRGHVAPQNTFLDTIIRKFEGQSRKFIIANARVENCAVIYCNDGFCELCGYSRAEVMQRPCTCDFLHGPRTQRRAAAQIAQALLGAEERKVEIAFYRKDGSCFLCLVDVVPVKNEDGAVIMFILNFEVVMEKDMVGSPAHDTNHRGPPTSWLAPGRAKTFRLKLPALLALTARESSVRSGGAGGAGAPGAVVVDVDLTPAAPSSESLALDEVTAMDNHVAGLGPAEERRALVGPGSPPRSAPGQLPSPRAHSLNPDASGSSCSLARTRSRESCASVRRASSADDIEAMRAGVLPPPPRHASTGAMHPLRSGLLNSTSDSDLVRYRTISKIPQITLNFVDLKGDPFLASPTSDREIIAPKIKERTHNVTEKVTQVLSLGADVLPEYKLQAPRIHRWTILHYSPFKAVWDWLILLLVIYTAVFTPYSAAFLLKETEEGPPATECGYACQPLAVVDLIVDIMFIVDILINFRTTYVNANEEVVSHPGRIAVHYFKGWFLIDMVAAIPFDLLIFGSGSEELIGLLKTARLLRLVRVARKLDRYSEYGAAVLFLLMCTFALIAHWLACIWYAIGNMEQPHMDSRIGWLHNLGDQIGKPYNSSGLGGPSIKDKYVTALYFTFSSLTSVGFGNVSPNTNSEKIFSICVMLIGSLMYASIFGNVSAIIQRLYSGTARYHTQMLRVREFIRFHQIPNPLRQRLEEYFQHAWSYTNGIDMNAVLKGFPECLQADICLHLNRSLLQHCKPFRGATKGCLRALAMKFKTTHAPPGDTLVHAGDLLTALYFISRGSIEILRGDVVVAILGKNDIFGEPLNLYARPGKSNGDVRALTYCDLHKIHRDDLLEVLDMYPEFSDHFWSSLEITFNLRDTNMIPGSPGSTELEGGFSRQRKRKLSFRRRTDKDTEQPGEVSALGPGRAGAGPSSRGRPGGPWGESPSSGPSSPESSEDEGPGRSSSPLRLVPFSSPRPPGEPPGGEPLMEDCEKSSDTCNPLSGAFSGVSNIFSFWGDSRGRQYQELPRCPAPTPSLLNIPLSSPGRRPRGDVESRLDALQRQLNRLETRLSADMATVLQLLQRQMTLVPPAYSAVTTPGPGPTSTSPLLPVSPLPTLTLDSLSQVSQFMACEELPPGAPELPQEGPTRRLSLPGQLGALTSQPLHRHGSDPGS

Row | Structure (SMILES) | hERG current change (%, negative = inhibition) at 1uM
1 | CCc1c(C(=O)N/N=C/c2sccc2C)nnn1-c1nonc1N | 16.4%
2 | Cc1nnc(SCC(=O)NC23CC4CC(CC(C4)C2)C3)n(N)c1=O | 8.13%
3 | Cc1nc2ccc(NC(=O)c3cc(S(=O)(=O)N4CCOCC4)ccc3C)cc2s1 | 17.3%
4 | COc1ccc2cc(C(=O)CS(=O)(=O)c3ccccc3)c(=O)oc2c1 | 12%
5 | O=S(=O)(c1cccs1)N1CCCc2ccccc21 | 1.4%
6 | O=C(O)/C(=C\c1ccc(C(F)(F)F)cc1)c1ccc(S(=O)(=O)N2CCCC2)s1 | 11.5%
7 | O=C(OCC1OC(n2ncc(=O)[nH]c2=O)C(OC(=O)c2ccccc2)C1OC(=O)c1ccccc1)c1ccccc1 (stereo not drawn) | 15.7%
8 | O=C(c1cccc(C(F)(F)F)c1)N(c1ccccn1)C1CCCCC1 | 10.2%
9 | COc1ccc(-c2c3c(=O)n(C)c(=O)n(C)c3cn2Cc2ccccn2)cc1 | 10.5%
10 | CCc1cc2cc3c(cc2nc1SCC(=O)N1CCN(C(=O)c2ccco2)CC1)OCO3 | -5.9%
11 | O=C(NCc1cccnc1)c1cc2nc(-c3ccc4c(c3)OCO4)cc(C(F)(F)F)n2n1 | 6.56%
12 | COC(=O)C1CCN(c2c([N+](=O)[O-])cc(C(F)(F)F)cc2[N+](=O)[O-])CC1 | 9.95%
13 | CCN(CC)C(=O)C1CCCN(C(=O)c2cc(COc3cccc(OC)c3)on2)C1 (stereo not drawn) | -8.57%
14 | CN1CCN(C(=O)c2cc(=O)c3cc(Cl)cc(Cl)c3o2)CC1 | -5.7%
15 | COc1cc2nc(/C=C/c3ccc(N(C)C)cc3)sc2cc1SC | 7.27%
16 | COC(=O)COc1ccc(S(=O)(=O)NCc2cccnc2)cc1 | 8.98%
17 | Cc1ccc2nc(Nc3nc(CSc4nnc(C)s4)cc(=O)[nH]3)nc(C)c2c1 | 3.97%
18 | O=[N+]([O-])c1ccc(N/N=C\c2ccccc2OCc2ccccc2)cc1 | 16.9%
19 | CCOc1cc(/C=C2/C(=N)N3OC(C)=CC3=NC2=O)ccc1OC(=O)c1ccco1 | 2.91%
20 | O=C(Nc1ccccc1C(=O)Nc1nncs1)c1ccccc1 | 19.9%
21 | Nc1ncnc2nc(SCCN3CCCCC3)[nH]c12 | 9.84%
22 | O=C(Nc1sccc1C(=O)N1CCOCC1)c1cccnc1 | 4.54%

Row | Structure (SMILES) | hERG current change (%, negative = inhibition) at 1uM
23 | CS(=O)(=O)c1ccccc1-c1nnc(NC(=O)CCS(=O)(=O)c2ccc(Cl)cc2)o1 | -12.2%
24 | Cn1cnnc1SCc1ccc(-c2ccc(Br)cc2)o1 | 9.14%
25 | CCOc1ccc(S(=O)(=O)NCCC2=CCCCC2)c2ccccc12 | 7.21%
26 | O=C(Cn1nnc(-c2ccccc2)n1)NNC(=O)c1ccccc1 | -1.02%
27 | Cc1ccc(NC(=O)C2CCCN(S(=O)(=O)c3ccc4c(c3)oc(=O)n4C)C2)nc1 (stereo not drawn) | 5.25%
28 | COc1ccc(CCNC(=O)CSc2nn3c(=O)c(C)nnc3s2)cc1OC | 10.1%
29 | O=S(=O)(c1cccc2nsnc12)N1CCc2ccccc2C1 | 0.545%
30 | Cc1cc(Br)c(S(=O)(=O)NCCN2CCOCC2)cc1C | 12%
31 | CCOC(=O)c1sc2nc(N3CCCC3)c3c(c2c1N)CC(C)(C)OC3 | 6.24%
32 | CCc1ccc(NC(=O)Cn2ncn3c(cc4ccccc43)c2=O)cc1 | 4.19%
33 | Cc1c(OC(C)C(=O)NCCCn2ccnc2)ccc2c3c(c(=O)oc12)CCC3 (stereo not drawn) | 4.05%
34 | CCOc1ccccc1Nc1nnc(SCC(=O)N2CCCC2)s1 | 4.61%
35 | CC(C)Cn1c(SCC(=O)N(C)C2CCS(=O)(=O)C2)nc2cc(Cl)ccc2c1=O (stereo not drawn) | 4.62%
36 | Cc1cc(C)c(S(=O)(=O)NC2CC(C)(C)NC(C)(C)C2)cc1Br | 3.29%
37 | CCC(=O)Nc1ccc(C=C(C(C)=O)C(C)=O)cc1 | 19.7%
38 | CCCc1cc(=O)[nH]c(SCC(=O)N2CCOCC2)n1 | 11.9%
39 | CC(C)COc1ccc(C(=O)NNC(=O)c2ccc(=O)[nH]c2)cc1 | 5.99%
40 | Cn1nnc(NC(=S)NC(=O)c2cc3ccccc3o2)n1 | 14.8%
41 | COC1CC(C)NC(=S)N1 (stereo not drawn) | 14.8%
42 | Cc1ccccc1C(=O)N1CCN(c2ccc(NC(=O)c3cccc(OC(C)C)c3)cc2)CC1 | 10.4%
43 | CCCc1cc(=O)n2[nH]c(-c3ccc(OC)cc3)nc2n1 | -3.28%
44 | O=C(C(Cc1ccccc1)N1C(=O)C2C3C=CC(C3)C2C1=O)N1CCCCC1 (stereo not drawn) | 13.1%

Row | Structure (SMILES) | hERG current change (%, negative = inhibition) at 1uM
45 | Cc1ccc(NC(=O)CSCC(=O)Nc2cc(C(F)(F)F)ccc2N2CCOCC2)cc1 | 5.26%
46 | CCOc1ccc(N(CC(=O)NCC2CCCO2)S(=O)(=O)c2ccc(Cl)cc2)cc1 (stereo not drawn) | -16.1%
47 | CC(C)CCNC(=O)[C@H](Cc1ccccc1)N1Cc2ccccc2C1=O | 12.3%
48 | CCOC(=O)N1CCC(NC(=O)CS(=O)(=O)Cc2nc(-c3ccc(OC)cc3)oc2C)CC1 | 18.6%
49 | COc1ccccc1-c1nnc(SCC(=O)Nc2ccc(S(N)(=O)=O)cc2)n1C | -2.34%
50 | N#Cc1ccc(NC(=O)COC(=O)C2Cc3ccccc3CN2C(=O)c2ccccc2)cc1 (stereo not drawn) | 3.93%
51 | COc1cc(C2C(C(C)=O)=C(O)C(=O)N2CCc2c[nH]c3ccccc23)ccc1O (stereo not drawn) | 1.02%
52 | O=[N+]([O-])c1ccccc1-c1cc(-c2ccccc2O)n[nH]1 | 17.7%
53 | COc1ccccc1NCCC(=O)OCC(=O)NC1CCCCC1 | 5.87%
54 | O=C(CSc1nnc(CCCO)n1-c1ccccc1)NCCc1ccccc1 | 5.42%
55 | O=C(c1ccco1)n1nc(NCc2ccccc2)nc1NCc1ccccc1 | 5.6%
56 | CC(=O)Nc1ccc(O)cc1 | 13.6%
57 | O=C(O)CCSc1nnc(-c2ccc3c(c2)OCO3)o1 | 8.61%
58 | Cc1cc(C)nc(N/N=C/c2cccc3ccccc23)n1 | 16.8%
59 | CCCCC(=O)Nc1nnc(S(=O)(=O)N2CCCCCC2)s1 | 11.6%
60 | Cc1ccccc1Cn1cc(NC(=O)COc2ccccc2)cn1 | 13%
61 | CCOc1ccc(S(=O)(=O)N2CCN(Cc3ccco3)CC2)cc1 | 6.45%
62 | O=c1oc2ccccc2c(NCCc2ccccc2)c1[N+](=O)[O-] | 2.5%
63 | Cc1cc(Cc2ccc(N)c(C)c2)ccc1N | 12%
64 | Cc1cc(=O)nc2c3ccccc3n(C(C)C(=O)Nc3cc(F)ccc3F)n12 (stereo not drawn) | 2.3%
65 | O=C(O)C(=O)/C(=C\c1cccc2ccccc12)c1ccc2ccccc2n1 | 16.7%
66 | CN(C)C(=O)c1ccc(NC(=O)c2ccccc2SCC(=O)N2CCCC2)cc1 | 9.77%

Row | Structure (SMILES) | hERG current change (%, negative = inhibition) at 1uM
67 | O=C1CC(Cc2ccc(Cl)cc2)C(=O)N1c1ccncc1 (stereo not drawn) | 1.95%
68 | CC(=O)NC(Cc1c[nH]c2ccccc12)C(=O)NCc1ccc2c(c1)OCO2 (stereo not drawn) | 1.36%
69 | Cc1ccc(C2CC(=O)c3cnc(N4CCN(c5ccccc5)CC4)nc3C2)cc1 (stereo not drawn) | 5.58%
70 | COc1cccc(CN2CCN(Cc3cc(OC)c(OC)c(OC)c3)CC2)c1OC.O=C(O)C(=O)O | 6.27%
71 | Oc1ccc(C(=S)N2CCCCC2)cc1Cl | 5.43%
72 | O=C(c1cc2ccccc2o1)N1CCN=C1SCc1cccnc1 | 4.85%
73 | Cc1cc(C(=O)NC(C)c2ccncc2)cs1 (stereo not drawn) | -8.55%
74 | Cc1cc(=O)[nH]c(SCC(=O)Nc2cc(S(=O)(=O)N(C)C)ccc2Cl)n1 | 20.3%
75 | COc1ccc(NC(=S)N2CCN(Cc3ccc(C)cc3)CC2)cc1 | -14.9%
76 | O=C(c1cccs1)N1CCC(C(=O)N2CCN(Cc3ccc4c(c3)OCO4)CC2)CC1 | -5.68%
77 | N#CCCN(C(=O)COC(=O)c1cccc(S(=O)(=O)Nc2ccc([N+](=O)[O-])cc2)c1)c1ccccc1 | 3.53%
78 | CC(=O)c1ccc(S(=O)(=O)N2CCN(C(=O)CSc3ccc(F)cc3)CC2)cc1 | 14.2%
79 | Nc1nnc(-c2ccc(Cl)cc2)s1 | 16.9%
80 | O=C(N=C1SC2CS(=O)(=O)CC2N1CCc1ccccc1)C1CC1 (stereo not drawn) | 9.32%
81 | Cc1cccc(C)c1NC(=O)Cn1cnc2c(=O)n(C)c(=O)n(C)c21 | 7.67%
82 | CCN1CCCC(OC(=O)c2cc(-c3ccc(C)cc3)nc3ccccc23)C1.Cl (stereo not drawn) | 10.3%
83 | CCN(c1ccccc1)S(=O)(=O)c1ccc(OC)c(NC(=O)Cc2ccccc2OC)c1 | 6.49%
84 | COc1ccc(S(=O)(=O)N2CCN(CC(=O)NCC3(N4CCOCC4)CCCCC3)CC2)cc1 | -0.52%
85 | COc1ccc(OC)c2[nH]c(=O)c(CCNC(=O)C3CCCCC3)cc12 | -16%
86 | Cc1ccc(S(=O)(=O)N2CCN(C(=O)c3c(C)nn(-c4ccccc4)c3Cl)CC2)cc1 | -14.3%
87 | CCC(C)[C@H](NC(=O)Nc1ccc2c(c1)OCCO2)C(=O)O (stereo partly drawn) | 4.7%
